Measurements reported in the antibiotic and cytotoxicity screens of Wong et al. (2023).
Some of the results follow.

Experiments:
HSkMC = human skeletal muscle cells; assay: cytotoxicity call (relative viability < 0.9); conditions: 10 µM
HepG2 = assay: cytotoxicity call (relative viability < 0.9); conditions: 10 µM
S. aureus RN4220 = assay: growth inhibition call (relative growth <= 0.2); conditions: 50 µM

| Compound | cytotoxicity call (HSkMC) | cytotoxicity call (HepG2) | growth inhibition call (S. aureus RN4220) |
| --- | --- | --- | --- |
| O=C1N[C@@H](Cc2ccccc2)C(=O)N2[C@@H]1C[C@@H](C(=O)NCc1ccc(F)cc1)[C@H]2c1cccc(OCCO)c1 | inactive | inactive | inactive |
| C=CCOC(=O)[C@H]1[C@@H]2C(=O)O[C@@H](c3ccccc3)[C@@H](c3ccccc3)N2[C@@H](c2ccc(OCCOC(=O)[C@@H]3C[C@@H]4C(=O)N[C@@H](CC(C)C)C(=O)N4[C@@H]3c3cccc(OCCO)c3)cc2)[C@]12C(=O)Nc1ccccc12 | inactive | inactive | inactive |
| C[C@@H]1CN([C@@H](C)CO)C(=O)c2cc(NS(=O)(=O)c3ccc(Cl)cc3)ccc2O[C@@H]1CN(C)S(C)(=O)=O | inactive | inactive | inactive |
| COc1cccc(NC(=O)N[C@@H]2C=C[C@@H](CC(=O)N3CCOCC3)O[C@H]2CO)c1 | inactive | inactive | inactive |
| CC(C)NC(=O)N(C)C[C@@H]1Oc2ccc(NC(=O)C3CCCCC3)cc2CC(=O)N([C@H](C)CO)C[C@H]1C | inactive | inactive | inactive |
| C[C@@H]1CN([C@@H](C)CO)C(=O)Cc2cc(NS(=O)(=O)c3ccccc3)ccc2O[C@@H]1CN(C)Cc1ccc(Cl)c(Cl)c1 | active | active | inactive |
| COc1cc(C(=O)O[C@H]2CC[C@@]3(C)[C@@H]4CC[C@H]5[C@]6(O)C[C@H](O)[C@@]7(O)[C@@H](CN8C[C@@H](C)CC[C@H]8[C@@]7(C)O)[C@]6(O)C[C@@]53O[C@@]24O)cc(OC)c1OC | inactive | inactive | inactive |
| C[C@H](CO)N1C[C@H](C)[C@H](CN(C)S(C)(=O)=O)Oc2c(NS(C)(=O)=O)cccc2C1=O | inactive | inactive | inactive |
| Nc1ccc([C@@H](O)[C@@H](O)CO)cc1 | inactive | inactive | inactive |
| COc1ccc(NC(=O)N(C)C[C@@H]2OCCCC[C@H](C)Oc3ccc(NC(=O)NC(C)C)cc3C(=O)N([C@@H](C)CO)C[C@@H]2C)cc1 | inactive | inactive | inactive |
| C[C@@H]1CCCCO[C@@H](CN(C)Cc2ccncc2)[C@@H](C)CN([C@@H](C)CO)C(=O)c2cc(NC(=O)Cc3ccccc3)ccc2O1 | inactive | inactive | inactive |
| Cc1nsc(-c2ccccc2)n1 | inactive | inactive | inactive |
| C[C@H](CO)N1C[C@H](C)[C@@H](CN(C)CC2CCCCC2)OCCCC[C@H](C)Oc2ccc(NS(=O)(=O)c3cccs3)cc2C1=O | inactive | inactive | inactive |
| CO[C@@H]1CN(C)C(=O)c2cc(NC(=O)Nc3cccc(F)c3)ccc2OC[C@@H](C)N(C(=O)Nc2c(C)noc2C)C[C@@H]1C | inactive | inactive | inactive |
| O=C(C[C@@H]1CC[C@H]2[C@@H](COC[C@@H](O)CN2C(=O)c2cccnc2)O1)NCc1ccc(-c2ccccc2)cc1 | inactive | inactive | inactive |
| C[C@@H]1CN([C@H](C)CO)S(=O)(=O)c2ccc(-c3ccccc3F)cc2O[C@H]1CN(C)S(C)(=O)=O | inactive | inactive | inactive |
| CCOc1ccc(-n2c([C@@H](C)N(Cc3cccnc3)C(=O)Cc3ccc(OC(F)(F)F)cc3)nc3ncccc3c2=O)cc1 | inactive | inactive | inactive |
| CC(C)NC(=O)N(C)C[C@@H]1Oc2ccc(NS(=O)(=O)c3cccs3)cc2C(=O)N([C@H](C)CO)C[C@H]1C | inactive | inactive | inactive |
| COc1ccc(CN(C)C[C@H]2OCCCC[C@@H](C)Oc3ccc(NS(=O)(=O)c4ccc(C)cc4)cc3C(=O)N([C@H](C)CO)C[C@H]2C)cc1 | inactive | inactive | inactive |
| C[C@@H]1CN([C@@H](C)CO)C(=O)c2cc(-c3ccc(C(=O)N(C)C)cc3)cnc2O[C@@H]1CN(C)C(=O)C1CC1 | inactive | inactive | inactive |
| CCC(=O)n1ccc(C(=O)N2CCOCC2)n1 | inactive | inactive | inactive |
| NC[C@H](c1cccc(F)c1)N1CCCCC1 | inactive | inactive | inactive |
| CCOC(=O)N(C)C[C@@H]1OCc2cnnn2CCCC(=O)N([C@@H](C)CO)C[C@@H]1C | inactive | inactive | inactive |
| C[C@H](CO)N1C[C@H](C)[C@H](CN(C)S(=O)(=O)c2ccc3ccccc3c2)OCc2cn(nn2)CCCC1=O | inactive | inactive | inactive |
| Cc1noc(C)c1NC(=O)Nc1ccc2c(c1)C(=O)N([C@H](C)CO)C[C@@H](C)[C@@H](CN(C)C(=O)Nc1c(C)noc1C)OCCCC[C@@H](C)O2 | inactive | inactive | inactive |
